In publication PMC9911399, “Two distinct binding modes provide the RNA-binding protein RbFox with extraordinary sequence specificity”:
Numbering of substitutions follows the chain as printed; changes in the protein carry UniProt numbers. The list shows a part of the results.

T1: RBFOX1 RRM RbFoxmut (Fox-RRM*) (Homo sapiens, UniProt Q9NWB1 109-208, R118D;E147R;N151S;E152T)
T1 sequence: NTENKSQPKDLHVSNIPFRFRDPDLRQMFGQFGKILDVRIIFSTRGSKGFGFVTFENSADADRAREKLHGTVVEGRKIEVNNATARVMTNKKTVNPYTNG

B1: GCUCAGC (DNA:RNA)
RNA: GGGAGACCGGAAUUCAGAUUGUCCGCUCAGCUUAAAUCCCGUCGUAGCCACCA
DNA 1: CAATCTGAATTCCGGTCTCCC
DNA 2: TGGTGGCTACGACGGGATT
B2: CCCGCCU (DNA:RNA)
RNA: B1 RNA with G25C, U27C, C28G, A29C, G30C, C31U
DNA 1: CAATCTGAATTCCGGTCTCCC
DNA 2: TGGTGGCTACGACGGGATT
B3: AAUUUAC (DNA:RNA)
RNA: B1 RNA with G25A, C26A, C28U, A29U, G30A
DNA 1: CAATCTGAATTCCGGTCTCCC
DNA 2: TGGTGGCTACGACGGGATT
B4: CGAGCAG (DNA:RNA)
RNA: GGGAGACCGGAAUUCAGAUUGUCCCGAGCAGUUAAAUCCCGUCGUAGCCACCA
DNA 1: CAATCTGAATTCCGGTCTCCC
DNA 2: TGGTGGCTACGACGGGATT
B5: GGUCUAU (DNA:RNA)
RNA: B1 RNA with C26G, A29U, G30A, C31U
DNA 1: CAATCTGAATTCCGGTCTCCC
DNA 2: TGGTGGCTACGACGGGATT
B6: CGGUACC (DNA:RNA)
RNA: B4 RNA with A27G, G28U, C29A, A30C, G31C
DNA 1: CAATCTGAATTCCGGTCTCCC
DNA 2: TGGTGGCTACGACGGGATT
B7: CCGACGU (DNA:RNA)
RNA: B4 RNA with G26C, A27G, G28A, A30G, G31U
DNA 1: CAATCTGAATTCCGGTCTCCC
DNA 2: TGGTGGCTACGACGGGATT
B8: AACGCUU (DNA:RNA)
RNA: B4 RNA with C25A, G26A, A27C, A30U, G31U
DNA 1: CAATCTGAATTCCGGTCTCCC
DNA 2: TGGTGGCTACGACGGGATT
B9: UGUCAGA (DNA:RNA)
RNA: B1 RNA with G25U, C26G, C31A
DNA 1: CAATCTGAATTCCGGTCTCCC
DNA 2: TGGTGGCTACGACGGGATT
B10: ACUCGCG (DNA:RNA)
RNA: B1 RNA with G25A, A29G, G30C, C31G
DNA 1: CAATCTGAATTCCGGTCTCCC
DNA 2: TGGTGGCTACGACGGGATT
B11: GAGUACC (DNA:RNA)
RNA: B1 RNA with C26A, U27G, C28U, G30C
DNA 1: CAATCTGAATTCCGGTCTCCC
DNA 2: TGGTGGCTACGACGGGATT
B12: UGGGAAC (DNA:RNA)
RNA: B4 RNA with C25U, A27G, C29A, G31C
DNA 1: CAATCTGAATTCCGGTCTCCC
DNA 2: TGGTGGCTACGACGGGATT
B13: CCAGAAA (DNA:RNA)
RNA: B4 RNA with G26C, C29A, G31A
DNA 1: CAATCTGAATTCCGGTCTCCC
DNA 2: TGGTGGCTACGACGGGATT
B14: UGAAAUA (DNA:RNA)
RNA: B4 RNA with C25U, G28A, C29A, A30U, G31A
DNA 1: CAATCTGAATTCCGGTCTCCC
DNA 2: TGGTGGCTACGACGGGATT
B15: AAGCUCA (DNA:RNA)
RNA: B1 RNA with G25A, C26A, U27G, A29U, G30C, C31A
DNA 1: CAATCTGAATTCCGGTCTCCC
DNA 2: TGGTGGCTACGACGGGATT
B16: AUCGUCG (DNA:RNA)
RNA: B4 RNA with C25A, G26U, A27C, C29U, A30C
DNA 1: CAATCTGAATTCCGGTCTCCC
DNA 2: TGGTGGCTACGACGGGATT
B17: GUCAUAA (DNA:RNA)
RNA: B4 RNA with C25G, G26U, A27C, G28A, C29U, G31A
DNA 1: CAATCTGAATTCCGGTCTCCC
DNA 2: TGGTGGCTACGACGGGATT
B18: CGUUCCG (DNA:RNA)
RNA: B4 RNA with A27U, G28U, A30C
DNA 1: CAATCTGAATTCCGGTCTCCC
DNA 2: TGGTGGCTACGACGGGATT
B19: CUCGUCC (DNA:RNA)
RNA: B4 RNA with G26U, A27C, C29U, A30C, G31C
DNA 1: CAATCTGAATTCCGGTCTCCC
DNA 2: TGGTGGCTACGACGGGATT
B20: AGUCUGC (DNA:RNA)
RNA: B1 RNA with G25A, C26G, A29U
DNA 1: CAATCTGAATTCCGGTCTCCC
DNA 2: TGGTGGCTACGACGGGATT
B21: GGCGGAG (DNA:RNA)
RNA: B4 RNA with C25G, A27C, C29G
DNA 1: CAATCTGAATTCCGGTCTCCC
DNA 2: TGGTGGCTACGACGGGATT
B22: UUCCUGA (DNA:RNA)
RNA: B1 RNA with G25U, C26U, U27C, A29U, C31A
DNA 1: CAATCTGAATTCCGGTCTCCC
DNA 2: TGGTGGCTACGACGGGATT
B23: UACAAGA (DNA:RNA)
RNA: B1 RNA with G25U, C26A, U27C, C28A, C31A
DNA 1: CAATCTGAATTCCGGTCTCCC
DNA 2: TGGTGGCTACGACGGGATT
B24: UCAGUGC (DNA:RNA)
RNA: B1 RNA with G25U, U27A, C28G, A29U
DNA 1: CAATCTGAATTCCGGTCTCCC
DNA 2: TGGTGGCTACGACGGGATT
B25: UUGUCCA (DNA:RNA)
RNA: B4 RNA with C25U, G26U, A27G, G28U, A30C, G31A
DNA 1: CAATCTGAATTCCGGTCTCCC
DNA 2: TGGTGGCTACGACGGGATT
B26: ACUGUAG (DNA:RNA)
RNA: B4 RNA with C25A, G26C, A27U, C29U
DNA 1: CAATCTGAATTCCGGTCTCCC
DNA 2: TGGTGGCTACGACGGGATT
B27: GAUCGAA (DNA:RNA)
RNA: B1 RNA with C26A, A29G, G30A, C31A
DNA 1: CAATCTGAATTCCGGTCTCCC
DNA 2: TGGTGGCTACGACGGGATT
B28: AACCCUG (DNA:RNA)
RNA: B4 RNA with C25A, G26A, A27C, G28C, A30U
DNA 1: CAATCTGAATTCCGGTCTCCC
DNA 2: TGGTGGCTACGACGGGATT
B29: CAGCAGG (DNA:RNA)
RNA: B1 RNA with G25C, C26A, U27G, C31G
DNA 1: CAATCTGAATTCCGGTCTCCC
DNA 2: TGGTGGCTACGACGGGATT
B30: UCUAUGA (DNA:RNA)
RNA: B1 RNA with G25U, C28A, A29U, C31A
DNA 1: CAATCTGAATTCCGGTCTCCC
DNA 2: TGGTGGCTACGACGGGATT
B31: GCAUGGC (DNA:RNA)
RNA: B1 RNA with U27A, C28U, A29G
DNA 1: CAATCTGAATTCCGGTCTCCC
DNA 2: TGGTGGCTACGACGGGATT

molecular target: T1, RBFOX1 RRM RbFoxmut (Fox-RRM*); assay: EMSA; HiTS-Eq, 1 nM pool, 10 min; buffer printed only for the single-RNA assays: 10 mM Tris pH 7.5, 150 mM NaCl, 3.4 mM EDTA, 0.001% NP-40, 30 C; conditions: tags: His6 N-terminal (pET28a); label: 5' 32P
Method in brief: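 Relative association constants, normalised to the cognate motif, were derived by comparing read counts of each RNA species with those of the control reaction. The RNA sequenced was the free fraction, separated by 8% native PAGE after a 10 min equilibration in 50 µL of 1 nM 5′-radiolabelled RNA (7 randomized nucleotides) with increasing concentrations of purified wild-type or mutant RbFox RRM.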

Row | Binder | binding signal
1 | B1 | 0.0895 KA relative to UGCAUGU
2 | B2 | 0.0593 KA relative to UGCAUGU
3 | B3 | 0.113 KA relative to UGCAUGU
4 | B4 | 0.0773 KA relative to UGCAUGU
5 | B5 | 0.1 KA relative to UGCAUGU
6 | B6 | 0.102 KA relative to UGCAUGU
7 | B7 | 0.0783 KA relative to UGCAUGU
8 | B8 | 0.0863 KA relative to UGCAUGU
9 | B9 | 0.103 KA relative to UGCAUGU
10 | B10 | 0.0932 KA relative to UGCAUGU
11 | B11 | 0.103 KA relative to UGCAUGU
12 | B12 | 0.0921 KA relative to UGCAUGU
13 | B13 | 0.127 KA relative to UGCAUGU
14 | B14 | 0.0989 KA relative to UGCAUGU
15 | B15 | 0.104 KA relative to UGCAUGU
16 | B16 | 0.14 KA relative to UGCAUGU

Row | Binder | binding signal
17 | B17 | 0.12 KA relative to UGCAUGU
18 | B18 | 0.113 KA relative to UGCAUGU
19 | B19 | 0.0737 KA relative to UGCAUGU
20 | B20 | 0.0707 KA relative to UGCAUGU
21 | B21 | 0.0884 KA relative to UGCAUGU
22 | B22 | 0.0673 KA relative to UGCAUGU
23 | B23 | 0.058 KA relative to UGCAUGU
24 | B24 | 0.116 KA relative to UGCAUGU
25 | B25 | 0.126 KA relative to UGCAUGU
26 | B26 | 0.143 KA relative to UGCAUGU
27 | B27 | 0.113 KA relative to UGCAUGU
28 | B28 | 0.0815 KA relative to UGCAUGU
29 | B29 | 0.0987 KA relative to UGCAUGU
30 | B30 | 0.11 KA relative to UGCAUGU
31 | B31 | 0.497 KA relative to UGCAUGU
